Experimental data from the supplement of paper PMC3334620.
Over roughly 33,000 sequences, “E-score (-0.5 to 0.5)” has its median near -0.021; the highest 2% begin near 0.32. This is one part of the list.

These sequences were tested against T1, Zap1 (UniProt P47043) (assay: PBM E-score (8-mer binding enrichment) (E-score (-0.5 to 0.5)); higher = stronger / more preferred TF binding; most listed sequences are background and not binding sites). Conditions: protein concentration: 200 nM; construct: GST-full length.
T1 sequence: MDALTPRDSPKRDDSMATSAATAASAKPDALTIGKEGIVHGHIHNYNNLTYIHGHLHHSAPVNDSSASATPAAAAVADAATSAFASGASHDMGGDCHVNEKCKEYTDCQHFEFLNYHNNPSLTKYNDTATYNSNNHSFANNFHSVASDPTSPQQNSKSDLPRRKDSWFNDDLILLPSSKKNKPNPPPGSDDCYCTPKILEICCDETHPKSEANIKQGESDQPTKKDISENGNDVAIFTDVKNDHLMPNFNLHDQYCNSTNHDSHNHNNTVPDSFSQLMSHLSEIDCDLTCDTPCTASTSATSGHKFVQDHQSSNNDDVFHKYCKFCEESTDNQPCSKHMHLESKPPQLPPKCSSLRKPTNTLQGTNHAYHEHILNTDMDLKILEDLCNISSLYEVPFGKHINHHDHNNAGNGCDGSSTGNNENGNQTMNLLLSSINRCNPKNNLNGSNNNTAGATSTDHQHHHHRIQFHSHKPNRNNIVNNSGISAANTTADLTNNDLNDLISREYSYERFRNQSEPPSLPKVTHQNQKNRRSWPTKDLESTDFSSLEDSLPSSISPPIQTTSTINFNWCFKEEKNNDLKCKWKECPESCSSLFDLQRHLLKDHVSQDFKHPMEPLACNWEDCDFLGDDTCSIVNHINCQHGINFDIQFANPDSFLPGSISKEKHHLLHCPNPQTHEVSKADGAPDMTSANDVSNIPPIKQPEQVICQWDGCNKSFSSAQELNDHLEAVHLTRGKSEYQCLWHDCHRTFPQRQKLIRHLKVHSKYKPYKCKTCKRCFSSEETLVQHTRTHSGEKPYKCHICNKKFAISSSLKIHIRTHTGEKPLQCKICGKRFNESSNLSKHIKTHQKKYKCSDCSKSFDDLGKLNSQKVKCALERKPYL
Procedure, shortened: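 Masliner-normalised scans of fluorescent anti-GST signal were the basis for scoring. That signal came from GST-tagged yeast transcription factors applied at about 100-200 nM to double-stranded universal all-10-mer Agilent arrays on fresh or once-stripped slides. Each ungapped eight-base word, pooled with its reverse complement, received an E-score from the Universal PBM Analysis Suite.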

Sequence | PBM E-score
GCACTTAA | 0.0398
AAACGGAT | 0.0565
ACCTGACT | 0.143
ATTGCTCG | -0.229
CTTTCAAA | 0.18
CCGTCTAC | -0.0898
CACGCCTC | -0.037
CCGAGGCA | -0.187
CCATGCGC | -0.243
AATTGGAC | 0.214
AGGACCCA | 0.00285
ACGCAGTC | -0.22
GGCTACGA | -0.023
CATCATCC | -0.216
CCTAGTAA | 0.211
AATGTACA | 0.109
AACTATAG | 0.049
CAGAATCA | 0.092
GGTGCACC | -0.0818
CTCGACCA | -0.0557
CTTTCTGC | 0.0709
GTTCTTAA | 0.0134

Sequence | PBM E-score
CATCGGTA | -0.0262
CTTAATCC | -0.131
GCAGTCCC | -0.104
GGGGTGAA | 0.0494
ACGTACAT | 0.0468
ATTGGTGG | 0.0796
GTCATAGA | 0.0722
CCGTGAAG | -0.0542
CTAGTTCC | 0.022
CTCCAAAC | 0.0502
CTCACCTA | 0.133
CACGTTTA | -0.0258
GGTGTGCA | -0.0367
GTGAACCA | 0.0479
TACTCCTA | -0.112
AGTAGGTC | -0.107
CCAGGTGC | 0.0122
AGGTCCCA | -7e-05
CGGGGGAA | -0.168
AGTAGGAA | -0.163
AGCTTAGG | -0.11
CCGGTCCA | -0.201

Sequence | PBM E-score
CAGGTCCG | 0.00563
ACCTAGAC | -0.0183
AGAACTGC | -0.239
AGATCACG | -0.00601
GACAGTTA | 0.00556
TCCGCGAA | 0.05
AAATAAAG | 0.2
ATCACGAA | 0.101
CGACTAAA | -0.0228
AGCACAGG | -0.0671
TCACTAAA | 0.169
AAGACAGG | 0.00578
ACCTCGAT | 0.245
GAGAGTCC | -0.283
CTTTATGA | 0.0463
AATTGTAG | 0.0991
CCGCGAAG | 0.122
AAAAGCGG | -0.0123
AGTGTCCA | 0.172
CGACGCCA | -0.0251
ACGGAAGT | -0.128
CGGATGTC | 0.149

Sequence | PBM E-score
ACATCAGG | -0.0455
CCGTCACC | 0.203
AGAGGGCT | -0.237
ATGCCATA | -0.111
AACGTTCT | 0.0697
ATTTAGGG | 0.141
ACGCATTA | 0.12
AGGATACT | -0.165
AGAATAGA | -0.0048
ACCAGCAT | 0.0571
TCAGTTCA | -0.0962
ATTGTTTG | 0.115
AACCCTGT | 0.419
GTGTGAAC | -0.0337
TGGGCACA | -0.0634
ATGGGCAA | -0.0488
ACTTGCAA | 0.147
AAGGTAAC | 0.432
AGCCCTTG | -0.0802
GATTGCTA | -0.162
GGGAGAAC | -0.0658
TAGATCGA | -0.154

Sequence | PBM E-score
AAAAAAGC | 0.0685
CCGATGGC | -0.168
CACTATCC | -0.0967
GATCGGCA | -0.288
TCGACAGA | -0.0777
CGCGACCC | 0.299
TGCTAAAA | 0.101
CAATTCTG | -0.217
GCTGAATA | 0.0722
AATGGTCA | 0.303
ACAAAAAT | 0.234
AACACCAT | 0.0808
ATCTTAGC | -0.152
AGAAGTGA | -0.0659
GCATTAAA | 0.103
AACGCAAA | 0.0634
ATAACGCG | 0.0626
CGGCGTAC | -0.249
ACTACTCG | 0.0619
GATAGCGC | -0.175
AGATGGCC | 0.122
